Experimental data published in PubChem BioAssay AID2546 (National Center for Advancing Translational Sciences (NCATS), 2010).
Among all 310,000 compounds or so, about 11,000 (3.5%) were called active. Inconclusive results, whose numbers are uncertain, are shown with a selection of clear calls. The call rests on the fitted dose curve; in most records, active means well fitted inhibition curve with a large enough effect; inconclusive means small, poorly fitted or top-dose-only effect, or effect the other way; inactive means flat fitted curve, though single readings scatter. No potency is given beside an inconclusive call; the fits are too rough.

Assay: VP16 counterscreen qHTS for inhibitors of ROR gamma transcriptional activity;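 further: Gal4-VP16 expression switched on by copper sulfate through the metallothionein promoter; nearly all actives have a fitted effect of over 50% in size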
Details: Drosophila S2 Gal4-VP16 UAS-luciferase, luminescence, 20 h; series mostly up to 53.6 µM
Potency means the concentration at half of the fitted maximal effect; tags describe the fitted curve by direction and shape.

SMILES | Potency
COc1ccccc1N1CCN(C(=O)c2cc3c(C)nc4ccccc4c3o2)CC1 | inconclusive [inhibitor, single point]
O=C(/C=C/c1cccnc1)c1cccc(O)c1 | inconclusive [inhibitor, single point]
CC1CN(C(=S)NC(=O)c2ccccc2)CC(C)O1 (stereo not given) | active: 3.16 µM
O=C(Nc1ccc(Oc2nnc(-c3ccccc3)c3ccccc23)cc1)c1ccccc1 | inconclusive [inhibitor, single point]
CCC(=O)Nc1cccc(-c2nc3ccccc3o2)c1 | inconclusive [activator, single point]
CCOc1ccccc1N1C(=O)CC(Sc2nccc(C)n2)C1=O (stereo not given) | active: 17.8 µM
Cc1cccc(NC(=O)c2ccccc2[N+](=O)[O-])n1 | inactive
Cn1c(CNC(=O)CCNC(=O)c2ccc(F)c(F)c2)cc(=O)n(C)c1=O | inactive
CC1C/C(=C\c2cccnc2)C(=O)/C(=C/c2cccnc2)C1 (stereo not given) | active: 0.631 µM
CCN(Cc1ccccc1)c1ccc(N=Nc2nn(C)c(C)c2[N+](=O)[O-])cc1 | inconclusive [inhibitor, single point]
CCOc1ccccc1/C=N/NC(=O)c1c(C)nc2ccc(Br)cn12 | inactive
CCCN(CC(=O)Nc1ccccc1C)C(=O)c1ccc(COc2ccccc2)cc1 | inconclusive [inhibitor, single point]
O=C(N/N=C/c1ccc2nccnc2c1)c1cccc([N+](=O)[O-])c1 | inactive
COc1ccc(CCNC(C(=O)Nc2cc(C)cc(C)c2)c2ccccc2)cc1 (stereo not given) | inconclusive [inhibitor, single point]
O=C(NC(=S)Nc1ccc(N2CCOCC2)cc1)c1cccs1 | inconclusive [inhibitor, partial curve, poor fit]
CCCCNC(=O)c1ccc(CNS(=O)(=O)c2ccc(Br)cc2)cc1 | inactive
COc1ccc(NC(=O)c2c[nH]n3c(=O)cc(C4CCN(C(=O)OC(C)(C)C)CC4)nc23)cc1Cl | inactive
Cc1cc(N/N=C/c2cccc(Cl)c2)nc(NCc2ccccc2)n1 | inconclusive [inhibitor, single point]
Cc1ccc(Nc2c(-c3ccc(N4CCOCC4)cc3)nc3ncccn23)cc1C | inactive
CCOC(=O)C1=C(O)C(=O)NC(c2ccccc2)=C(OCC)C1 | inactive
COc1cc2ccccc2cc1C(=O)N(CCN(C)C)c1nc2c(F)cccc2s1 | inactive
O=C(Nc1ccc(Nc2ccccc2)cc1)c1c(F)c(F)c(F)c(F)c1F | inconclusive [inhibitor, partial curve]
COC(=O)c1sccc1NC(=O)CSc1nnnn1-c1ccccc1F | inconclusive [inhibitor, single point]
COc1ccc2ccccc2c1/C=N/NC(=S)Nc1cc(S(=O)(=O)N2CCOCC2)ccc1N1CCOCC1 | active: 10 µM
COc1cccc(Nc2ncnc3nc[nH]c23)c1 | inconclusive [activator, single point]

SMILES | Potency
Cc1ccc(-c2cc(=O)c3cc(C)ccc3[nH]2)cc1 | active: 15.8 µM
CC/C(=N\NC(=O)c1c[nH]c2ccccc12)c1cccs1 | inconclusive [inhibitor, single point]
COc1ccccc1NS(=O)(=O)c1cccc(C(=O)NN=C2CCCC2)c1 | inactive
Oc1c(N=NC(=S)Nc2ccccc2F)c2ccccc2n1Cc1ccc(F)cc1 | active: 3.55 µM
Cc1ccccc1C(=O)NCC(=O)NNC(=S)NC(=O)c1ccccc1C | inconclusive [inhibitor, single point]
C=CCOc1cccc(C(=O)N2CCCC(Nc3ccc4c(c3)OCCO4)C2)c1 (stereo not given) | inactive
O=C(CCC(=O)N1CCOc2ccccc21)NCCCN1CCN(Cc2ccccc2)CC1 | inactive
CC(=O)Nc1ccc(S(=O)(=O)N2CCC(C(=O)NCc3cccnc3)CC2)cc1 | inactive
Cc1noc2ncnc(N3CCN(c4cccc(Cl)c4)CC3)c12 | inconclusive [inhibitor, single point]
Cn1ncc(C#N)c1NC(=O)C1CC(c2ccc(Cl)c(Cl)c2)=NO1 (stereo not given) | inactive
Cc1nnc(N/N=C/c2cccc(C(F)(F)F)c2)n1N | inconclusive [inhibitor, single point]
Cc1cccc(N2CCN(C(=O)c3nn(C)c4c3CS(=O)(=O)c3ccccc3-4)CC2C)c1 (stereo not given) | inactive
O=[N+]([O-])c1cccc(NC(=S)N2CCc3ccccc32)c1 | inconclusive [inhibitor, single point]
CC(=O)c1ccc(Oc2cc(C)nc(N3CCOCC3)n2)cc1 | inactive
CCCOC(=O)c1cc(-c2ccc(C=O)o2)ccc1Cl | inconclusive [activator, single point]
Cn1nnc(NCc2cc(Br)ccc2OCc2ccccc2F)n1 | inconclusive [inhibitor, partial curve]
Cc1ccc2cc(C(c3nnnn3C3CCCC3)N(Cc3ccco3)Cc3cccs3)c(=O)[nH]c2c1 (stereo not given) | inactive
O=C(Nc1ccc(F)cc1)c1nc[nH]c1C(=O)Nc1ccc([N+](=O)[O-])cc1 | active: 7.08 µM
Cc1ccc(S(=O)(=O)CC(=O)Nc2nc(-c3ccccc3)cs2)cc1 | inactive
CC/C(=N\NC(=O)OC)c1ccc(OC(F)F)cc1 | inactive
CCOC(=O)c1[nH]c2ccc(C)cc2c1N | inconclusive [activator, full curve, poor fit]
O=C(Nc1ccc(-c2nc3ccccc3o2)cc1)C1CCCO1 (stereo not given) | inconclusive [inhibitor, single point]
Cc1cccn2cc(-c3ccc(Cl)cc3)nc12 | inconclusive [inhibitor, single point]
Cc1ccc(OCC(=O)Nc2ccccc2Sc2ccccc2)c([N+](=O)[O-])n1 | inconclusive [inhibitor, single point]
Nc1[nH]n2c(=O)c3c(nc2c1N=Nc1ccccc1)CCCC3 | inactive
